Laboratory results from PubChem BioAssay AID1918935 (Molecular Pharmacology Branch, DTP, NCI, 2023).
A number of entries come with more than one value. They are shown here; other results are not. There may be further records. The values listed for one entry repeat one measurement across runs, samples, wells, individuals or studies. Signs of the kind (2×) count equal records among those shown.

Tested on: 324938-238-R-J1-PDC complex spheroid viability
Experiment: Anticancer human tumor 324938-238-R-J1-PDC patient-derived bladder carcinoma cell line growth inhibition
Conditions: stronger effect = lower value
Source text: Multicellular complex tumor spheroid response to LSD1 Inhibitor Iadademstat in combination with a variety of drugs and investigational agents in selected tumor cell lines
The current study was undertaken to assess response to LSD1 inhibitors in combination with standard-of-care drugs and investigational agents in solid tumor complex spheroid models as well as in the K-562 leukemia. Complex spheroids include a stromal component modeled by human endothelial cells (HUVEC) and fibroblasts modeled by human mesenchymal stem cells (MSCs). The concentration ranges selected for each drug and investigational agent were based upon clinically achievable concentrations if the clinical Cmax of the agent was known.
Compounds. The drugs and investigational agents used in this study are listed on Table 1. All of the agents used, including staurosporine (NSC755774) and gemcitabine (NSC613327), were obtained from the Developmental Therapeutics Program, NCI. FDA-approved anticancer drugs are available from the NCI at http://dtp.nci.nih.gov/branches/dscb/oncology_drugset_explanation.html. Drugs and investigational agents were >95% pure by proton nuclear magnetic resonance (NMR) and liquid chromatography/mass spectrometry (LC/MS). Stock solutions were prepared at 400x in DMSO, stored at -70 degrees C, and diluted in fresh medium prior to their use. The final concentration of DMSO in cell culture wells never exceeded 0.25% (v/v). The FDA-approved anticancer drug set is available from the Developmental Therapeutics Program at https://dtp.cancer.gov/organization/dscb/obtaining/available_plates.htm. All drugs and investigational agents were tested over a range starting from a high concentration at or near the clinical Cmax and decreasing in half-log increments. If the clinical Cmax for an agent had not been determined, the highest concentration tested was 10 microM.
Cell Lines. […]
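Also: spheroids also contain HUVEC and human MSCs and agents combined with iadademstat; spheroids exposed to agents for 7 days before readout.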

NC1CC1c1ccc(-c2cccc(O)c2)cc1 (stereo not drawn)
viability, T/C (compound alone 0.316 µM): 78.6, 83, 76, 88.1, 77.2, 84.6, 75.7, 72.9, 78.3, 68.7, 73.3, 79.6, 62.2, 70.2, 91.8, 76.1, 81.2, 78.2, 77.7, 76.4, 75.9, 76.9, 80.8, 82.6% | viability, T/C (compound alone 1 µM): 68.2 (2×), 69.8, 78.3, 93.2, 73.8, 73.5, 64.9, 67.9, 70.3, 68.6, 67.6, 74.2, 67, 61.7, 71.6, 69.2, 72.1, 65.1, 67.4, 72.6, 70.1, 71.3, 75.3, 75.6% | viability, T/C (compound alone 10 µM): 65, 70.8, 72.9, 77.5, 76.6, 71, 78.3, 66.3, 68, 64.7, 51, 75.5, 60.5, 66.2, 80.2, 72, 67.6, 75.9, 67, 76.5, 59.6, 64.8, 66.1, 63.8, 86.8%
